# Test results taken from PubChem BioAssay AID588591 (National Center for Advancing Translational Sciences (NCATS), 2011).
# Out of some 390,000 compounds screened, about 4,700 (1.2%) were called active. This list was built around the results that the source calls inconclusive (neither active nor inactive); the mix of calls is not that of the screen. Calls follow the shape of the dose curve; as a rule, active = well fitted inhibition curve with a large enough effect; inconclusive = small, poorly fitted or top-dose-only effect, or another doubt; inactive = no such curve, though single readings can be large or run the other way. Potencies of inconclusive entries are doubtful fits and often do not repeat.
# Molecular target: DNA polymerase eta (Homo sapiens) (UniProt Q9Y253)
# Assay: qHTS for Inhibitors of Polymerase Eta
# Details: recombinant Pol eta, fluorescent DNA replication assay; series mostly up to 114 µM
# How it was run: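 Pol eta (10 nM) was preincubated with compounds for 15 min at room temperature, after which fluorescent replication substrate (50 nM final) was added to start the reaction. Fluorescence was read kinetically at 0 and 10 min.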
# Potency is read from the fitted curve at half-maximal effect; tags tell the direction and shape of the fitted curve.
# Sequence of UniProt Q9Y253 (Q9Y253 whole entry, looked up): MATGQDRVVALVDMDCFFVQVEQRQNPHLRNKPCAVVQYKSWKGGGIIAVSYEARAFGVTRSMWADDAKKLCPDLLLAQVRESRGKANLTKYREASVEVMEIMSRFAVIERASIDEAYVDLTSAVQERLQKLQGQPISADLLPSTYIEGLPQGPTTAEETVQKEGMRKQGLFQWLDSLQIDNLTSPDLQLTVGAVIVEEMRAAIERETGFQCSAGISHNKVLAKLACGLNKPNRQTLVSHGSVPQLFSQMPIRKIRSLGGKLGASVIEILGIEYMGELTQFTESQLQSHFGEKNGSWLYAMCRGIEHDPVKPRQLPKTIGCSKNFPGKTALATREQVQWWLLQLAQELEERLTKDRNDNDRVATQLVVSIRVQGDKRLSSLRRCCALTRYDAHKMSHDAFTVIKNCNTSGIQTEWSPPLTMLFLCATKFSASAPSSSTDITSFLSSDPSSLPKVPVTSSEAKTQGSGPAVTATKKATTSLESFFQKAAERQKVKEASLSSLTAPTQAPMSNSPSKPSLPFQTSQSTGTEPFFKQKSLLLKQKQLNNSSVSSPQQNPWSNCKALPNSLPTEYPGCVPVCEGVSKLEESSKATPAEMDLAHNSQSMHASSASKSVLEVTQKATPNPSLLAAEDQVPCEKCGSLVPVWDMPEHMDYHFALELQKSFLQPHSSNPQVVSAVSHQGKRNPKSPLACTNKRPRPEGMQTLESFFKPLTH
row,Compound,Potency
1,Cc1cc(=O)n2[nH]c(=O)c(N=Nc3ccccc3)c2[nH]1,"inconclusive: 56.2 µM [inhibitor, partial curve, poor fit]"
2,O=[N+]([O-])c1ccc(O)c(C=NNc2ccc(S(=O)(=O)O)cc2)c1,active: 6.31 µM
3,CCOc1ccc(CNCc2c(C(=O)O)n(Cc3ccc(OC)cc3)c3ccccc23)cc1,inactive
4,O=C(O)c1ccc(C=C(c2nc3ccccc3s2)c2nc3ccccc3s2)cc1,active: 39.8 µM
5,CCN1/C(=C/c2ccc3cc(C)cc(C)c3[n+]2CC)Sc2cc(C)ccc21,active: 79.4 µM
6,CCCCCCSc1cc(-c2nc3cnccn3c2NCCCC)ccc1OC,"inconclusive: 56.2 µM [inhibitor, partial curve, poor fit]"
7,C=C(C)C(=O)Nc1cccc(C2=NOC3(C2)C[C@@H](C(N)=O)N(C(=O)/C(C)=C/C)C3)c1 (stereo not given in full),active: 2.51 µM
8,CN(C)S(=O)(=O)N(CC(=O)NCCSCc1cccc(Cl)c1)c1ccccc1,"inconclusive: 100 µM [inhibitor, partial curve, poor fit]"
9,CN(C)c1ccc(/C=C/C(=O)c2cc(Cl)ccc2O)cc1,"inconclusive: 70.8 µM [inhibitor, partial curve, poor fit]"
10,CCc1nc2ccc(C(=O)Nc3ccc(NC(C)=O)cc3)cc2nc1CC,inactive
11,CCOC(=O)c1cnc2cc(C)ccn2c1=O,inactive
12,CCc1ccc(C2=Nn3c(nnc3-c3cccs3)SC2)cc1,"inconclusive: 35.5 µM [inhibitor, partial curve, poor fit]"
13,CCN(C(=O)COC(=O)C1CCN(S(=O)(=O)c2c(Cl)cccc2Cl)CC1)C1CCCCC1,"inconclusive: 79.4 µM [inhibitor, partial curve, poor fit]"
14,COc1cccc(-n2c(SCC(=O)N3CCCc4ccccc43)nc3c([nH]c4ccccc43)c2=O)c1,inactive
15,COc1cc(CC(=O)Nc2nccs2)cc(OC)c1OC,"inconclusive: 39.8 µM [inhibitor, single point]"
16,O=C(O)c1ccccc1NS(=O)(=O)c1cccc(-n2sc3ccccc3c2=O)c1,active: 50.1 µM
17,COc1ccc(-c2csc(C(C#N)=C(O)CSc3nccn3C)n2)cc1OC,active: 44.7 µM
18,COc1ccc(-c2nnc(Nc3ccc(OC)c(C(N)=O)c3)c3ccccc23)cc1,"inconclusive: 79.4 µM [inhibitor, partial curve]"
19,O=C(Nc1nnc(SCCN2CCOCC2)s1)C1CC(=O)N(c2ccc(F)cc2)C1 (stereo not given),"inconclusive: 22.4 µM [inhibitor, full curve]"
20,COCCN(C(=O)COC(=O)Cc1coc2cc(C)ccc12)c1c(N)n(Cc2ccccc2)c(=O)[nH]c1=O,active: 20 µM
21,CCOC(=O)c1nn(-c2ccc(F)cc2)c(C)c1C(C)=O,inactive
22,Cc1cc(C)c2nc(-c3ccccn3)cc(C(=O)NCc3ccco3)c2c1,"inconclusive: 14.1 µM [inhibitor, partial curve]"
23,COc1cccc2c(C)c(C(=O)O)[nH]c12,active: 12.6 µM

row,Compound,Potency
1,Nc1ccc2cccc(O)c2c1,active: 22.4 µM
2,CN(C)C(=O)c1cc2cc([N+](=O)[O-])ccc2s1,"inconclusive: 89.1 µM [inhibitor, partial curve, poor fit]"
3,Fc1cccc(Cl)c1C1Nc2cccc3cccc(c23)N1,inactive
4,CC(C)C1C(=O)N(Cc2cn(CCC3OCCCO3)nn2)CCS(=O)(=O)N1Cc1ccc(-c2ccc(Cl)cc2)cc1 (stereo not given),"inconclusive: 100 µM [inhibitor, partial curve, poor fit]"
5,CC(C(=O)Nc1ccc(O)cc1C(=O)O)N1C(=O)/C(=C\c2cccs2)SC1=S (stereo not given),active: 22.4 µM
6,Cc1ccc(-c2nc(-c3cc4cccc(OCc5cccc(F)c5)c4oc3=O)no2)cc1,active: 35.5 µM
7,FC(F)(F)c1cnc(Nc2ccc(N3CCOCC3)cc2)c(Cl)c1,"inconclusive: 39.8 µM [inhibitor, partial curve, poor fit]"
8,Cc1nnn(-c2nonc2N)c1C(=O)N/N=C/c1ccccc1O,"inconclusive: 35.5 µM [inhibitor, partial curve, poor fit]"
9,COc1ccc(C(=O)CCC(=O)N2CCN(c3ccc(C)cc3)C(C)C2)cc1 (stereo not given),inactive
10,O=C(O)CCN1C(=O)CC(N2C(=O)/C(=C/c3ccc(Cl)cc3)SC2=S)C1=O (stereo not given),"inconclusive: 14.1 µM [inhibitor, full curve, poor fit]"
11,COc1ccc(/C=N/NC(=O)Cn2cnc3ccccc3c2=O)cc1,"inconclusive: 3.16 µM [inhibitor, partial curve, poor fit]"
12,CN(c1ccccc1)c1ccc(/C=C(\CCC(=O)O)c2nc3ccccc3s2)cc1[N+](=O)[O-],active: 8.91 µM
13,O=C(c1ccc(O)cc1)c1ccc(C(=O)O)c(C(=O)O)c1,active: 39.8 µM
14,O=C(c1ccc(SCc2cccc(Br)c2)c([N+](=O)[O-])c1)N1CCN(c2ccccn2)CC1,inactive
15,Cc1c(Cl)cnc(NC(=O)COC(=O)/C=C/c2ccco2)c1Cl,active: 22.4 µM
16,Cc1cccc(OCCOc2ccccc2C=C(C#N)C#N)c1,"inconclusive: 35.5 µM [inhibitor, partial curve, poor fit]"
17,O=C(Nc1ccc([N+](=O)[O-])cc1)Nc1ccc(N2CCOCC2)c2nonc12,"inconclusive: 35.5 µM [inhibitor, single point]"
18,CC1CCN(c2ccc(C(=O)O)cc2N)CC1,active: 17.8 µM
19,Cn1cccc1-c1cc(C(=O)N/N=C/c2cc(Br)ccc2O)[nH]n1,"inconclusive: 25.1 µM [inhibitor, partial curve, poor fit]"
20,COc1cc(C(=O)NCC(=O)N2CCN(S(=O)(=O)c3cc(C)ccc3C)CC2)cc(OC)c1OC,inactive
21,COc1ccc(NC(=O)Cn2ncc(Cl)c(Cl)c2=O)cc1S(=O)(=O)N1CCOCC1,active: 7.08 µM
22,NC(=O)c1cc[n+](CC2=C(C(=O)O)N3C(=O)[C@@H](NC(=O)[C@@H](c4ccccc4)S(=O)(=O)[O-])[C@H]3SC2)cc1,active: 3.16 µM
